{
  "source": "PubChem BioAssay (Tox21)",
  "key": {"[1]": {"assay": "qHTS assay to identify small molecule antagonists of the thyroid receptor (TR) signaling pathway (AID 743065); also: nearly all actives have a fitted effect of over 55% in size; also: potency is read from the fitted curve at half-maximal effect; as to activity, negative = inhibition: % is scaled to controls: 0 for no effect and ±100 for the full control effect", "summary_of_the_method": "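GH3.TRE-Luc rat pituitary cells carrying two TR response elements driving luciferase were plated for 4 h, given compound plus 1 nM T3 (final), and incubated 23.5 h at 37 C. ONE-Glo luminescence measured reporter inhibition; CellTiter-Fluor fluorescence tracked cytotoxicity.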"}, "[2]": {"assay": "qHTS assay to identify small molecule antagonists of the estrogen receptor alpha (ER-alpha) signaling pathway - cell viability counter screen (AID 743074; calls by dose curve; also: nearly all actives have a fitted effect of over 45% in size; also: potency is read from the fitted curve at half-maximal effect)"}, "[3]": {"biological_target": "Estrogen receptor (Homo sapiens) (UniProt P03372)", "sequence (P03372 whole entry, looked up)": "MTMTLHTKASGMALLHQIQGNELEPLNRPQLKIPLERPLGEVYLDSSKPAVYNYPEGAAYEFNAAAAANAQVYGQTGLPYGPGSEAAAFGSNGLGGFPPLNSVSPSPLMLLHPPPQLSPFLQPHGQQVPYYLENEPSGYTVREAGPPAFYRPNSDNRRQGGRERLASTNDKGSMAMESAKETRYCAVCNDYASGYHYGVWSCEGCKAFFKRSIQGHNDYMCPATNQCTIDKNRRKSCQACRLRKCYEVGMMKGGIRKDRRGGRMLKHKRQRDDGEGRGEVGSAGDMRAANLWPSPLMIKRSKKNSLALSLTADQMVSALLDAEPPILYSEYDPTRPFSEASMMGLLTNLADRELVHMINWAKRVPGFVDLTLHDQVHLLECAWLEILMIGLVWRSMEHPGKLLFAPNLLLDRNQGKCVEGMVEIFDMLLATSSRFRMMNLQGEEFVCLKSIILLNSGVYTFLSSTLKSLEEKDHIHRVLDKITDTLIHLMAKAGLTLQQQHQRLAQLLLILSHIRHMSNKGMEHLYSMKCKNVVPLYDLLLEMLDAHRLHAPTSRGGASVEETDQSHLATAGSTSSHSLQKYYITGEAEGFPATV", "assay": "qHTS assay to identify small molecule agonists of the estrogen receptor alpha (ER-alpha) signaling pathway using the BG1 cell line (AID 743079); also: potency is read from the fitted curve at half-maximal effect; nearly all actives have a fitted effect of over 20% in size", "conditions": "BG1Luc4E2 cells, ERE-luciferase agonist, 22 h; activation: at 70.3 µM (top of the series) unless noted"}, "[4]": {"assay": "qHTS assay to identify aromatase inhibitors - cell viability counter screen (AID 743084);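 also: cells stimulated with testosterone during compound exposure; % is scaled to controls: 0 for no effect and ±100 for the full control effect; nearly all actives have a fitted effect of over 55% in size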", "conditions": "MCF-7 aro ERE viability, CellTiter-Fluor, 24 h; activity change, negative = cytotoxicity: at 70.3 µM (top of the series) unless noted"}, "[5]": {"biological_target": "Aryl hydrocarbon receptor (Homo sapiens) (UniProt P35869)", "sequence (P35869 whole entry, looked up)": "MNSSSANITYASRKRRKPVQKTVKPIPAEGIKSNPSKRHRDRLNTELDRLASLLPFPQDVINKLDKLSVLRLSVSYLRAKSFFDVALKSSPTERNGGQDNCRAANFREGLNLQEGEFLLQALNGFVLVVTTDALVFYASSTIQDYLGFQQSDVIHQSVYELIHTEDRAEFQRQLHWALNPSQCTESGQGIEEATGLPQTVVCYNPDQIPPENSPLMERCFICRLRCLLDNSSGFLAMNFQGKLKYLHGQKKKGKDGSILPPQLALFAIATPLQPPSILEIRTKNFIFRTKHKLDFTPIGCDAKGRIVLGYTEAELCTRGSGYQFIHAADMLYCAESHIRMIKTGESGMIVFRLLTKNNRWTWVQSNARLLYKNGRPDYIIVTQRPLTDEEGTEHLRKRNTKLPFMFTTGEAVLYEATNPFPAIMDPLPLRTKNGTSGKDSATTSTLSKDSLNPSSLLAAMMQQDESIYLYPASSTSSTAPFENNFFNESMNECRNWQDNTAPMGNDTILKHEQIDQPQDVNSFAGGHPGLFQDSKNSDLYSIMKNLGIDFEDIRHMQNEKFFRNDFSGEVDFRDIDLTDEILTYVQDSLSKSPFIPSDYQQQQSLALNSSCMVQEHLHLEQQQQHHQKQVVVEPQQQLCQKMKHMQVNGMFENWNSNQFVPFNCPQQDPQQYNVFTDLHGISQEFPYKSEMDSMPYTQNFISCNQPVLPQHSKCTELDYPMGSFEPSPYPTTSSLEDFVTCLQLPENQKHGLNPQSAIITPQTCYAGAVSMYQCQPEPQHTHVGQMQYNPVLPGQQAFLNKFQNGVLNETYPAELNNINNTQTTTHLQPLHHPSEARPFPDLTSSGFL", "assay": "qHTS assay to identify small molecule that activate the aryl hydrocarbon receptor (AhR) signaling pathway (AID 743085); also: nearly all actives have a fitted effect of over 15% in size; also: potency is read from the fitted curve at half-maximal effect", "summary_of_the_method": "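24 h compound exposure, 37C, HepG2-derived HG2L7.5c1 cells with DRE-responsive luciferase. Readouts: fluorescence viability, then luminescence at room temperature after 30 min.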"}, "Aromatase (Homo sapiens)": {"biological_target": "Aromatase (Homo sapiens) (UniProt P11511)", "sequence (P11511 whole entry, looked up)": "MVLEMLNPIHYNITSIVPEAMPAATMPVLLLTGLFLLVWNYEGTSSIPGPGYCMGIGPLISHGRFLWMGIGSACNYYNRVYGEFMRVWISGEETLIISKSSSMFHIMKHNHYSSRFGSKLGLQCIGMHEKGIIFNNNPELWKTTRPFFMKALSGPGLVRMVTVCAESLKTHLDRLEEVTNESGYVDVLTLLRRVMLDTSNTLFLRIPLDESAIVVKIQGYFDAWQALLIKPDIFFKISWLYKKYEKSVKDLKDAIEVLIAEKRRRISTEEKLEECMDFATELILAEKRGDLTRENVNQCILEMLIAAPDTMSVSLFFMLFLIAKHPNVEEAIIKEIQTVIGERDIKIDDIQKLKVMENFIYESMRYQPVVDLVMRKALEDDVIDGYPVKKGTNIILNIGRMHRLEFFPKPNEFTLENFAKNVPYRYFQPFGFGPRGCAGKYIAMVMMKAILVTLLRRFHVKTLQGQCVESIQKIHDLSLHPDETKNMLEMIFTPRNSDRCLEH", "assay": "qHTS assay to identify aromatase inhibitors (AID 743083); also: potency is read from the fitted curve at half-maximal effect; nearly all actives have a fitted effect of over 55% in size", "conditions": "MCF-7 aro ERE, testosterone-driven ERE luciferase, 24 h; activity, negative = inhibition: at 70.3 µM (top of the series)"}, "[6]": {"biological_target": "Peroxisome proliferator-activated receptor gamma (Homo sapiens) (UniProt P37231)", "sequence (P37231 whole entry, looked up)": "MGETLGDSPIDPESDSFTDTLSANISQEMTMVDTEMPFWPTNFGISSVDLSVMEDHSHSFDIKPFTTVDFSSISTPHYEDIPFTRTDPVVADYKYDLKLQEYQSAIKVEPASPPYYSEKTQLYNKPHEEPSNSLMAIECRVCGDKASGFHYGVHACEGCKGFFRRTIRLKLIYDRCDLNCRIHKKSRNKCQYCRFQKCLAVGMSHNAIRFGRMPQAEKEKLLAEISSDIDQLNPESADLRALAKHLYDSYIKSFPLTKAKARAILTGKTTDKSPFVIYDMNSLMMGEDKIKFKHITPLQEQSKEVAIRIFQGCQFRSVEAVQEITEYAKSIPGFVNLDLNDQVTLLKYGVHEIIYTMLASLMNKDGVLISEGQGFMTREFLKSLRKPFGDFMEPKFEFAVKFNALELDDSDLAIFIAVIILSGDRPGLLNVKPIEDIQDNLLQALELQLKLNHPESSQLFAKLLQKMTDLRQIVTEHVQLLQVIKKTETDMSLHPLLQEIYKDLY", "assay": "qHTS assay to identify small molecule agonists of the peroxisome proliferator-activated receptor gamma (PPARg) signaling pathway (AID 743094; active = well fitted activation curve with a large enough effect in the signal ratio in the repeat runs, not every such curve was filed as active; inconclusive = weak or mixed curves, or effect the other way; inactive = no such curve, though single readings can be large or run the other way; the % refers to the signal ratio; also: % is scaled to controls: 0 for no effect and ±100 for the full control effect)", "conditions": "HEK293H PPARg-UAS-bla, beta-lactamase FRET ratio, 17 h", "summary_of_the_method": "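GeneBLAzer PPARg UAS-bla HEK293H cells were plated, rested 5 h, then exposed to compounds for 17 h at 37C. Beta-lactamase activity was read by LiveBLAzer B/G FRET substrate fluorescence after 1 h at room temperature.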"}, "[7]": {"tested_on": "thyroid hormone receptor (rat, GH3 cells)", "assay": "qHTS assay to identify small molecule agonists of the thyroid receptor (TR) signaling pathway (AID 743066; calls by dose curve; also: % is scaled to controls: 0 for no effect and ±100 for the full control effect)", "conditions": "GH3.TRE-Luc cells, TR agonist luciferase, 24 h; activation: at 83.9 µM (top of the series) unless noted"}, "[8]": {"biological_target": "Estrogen receptor (Homo sapiens) (UniProt P03372)", "assay": "qHTS assay to identify small molecule antagonists of the estrogen receptor alpha (ER-alpha) signaling pathway (AID 743069; active = well fitted curve in the direction sought with a large enough effect in the signal ratio in the repeat runs, not every such curve was filed as active; inconclusive = weak or mixed curves, or effect the other way; inactive = no such curve, though single readings can be large or run the other way; the % refers to the signal ratio; also: % is scaled to controls: 0 for no effect and ±100 for the full control effect)", "conditions": "HEK293 ER-alpha-UAS-bla, beta-lactamase ratio, antagonist mode; activity, negative = inhibition: at 69.4 µM (top of the series) unless noted", "summary_of_the_method": "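HEK293 cells stably carrying an ER-alpha-UAS-bla beta-lactamase reporter were pre-cultured overnight in 2% charcoal-stripped FBS medium. Test compounds in DMSO were added together with 17beta-estradiol for 18 hr at 37C. Read-out was fluorescence after 2 hr with LiveBLAzer B/G FRET substrate at room temperature.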"}},
  "note": "Several values for one entry are separate records, joined by “and”; a condition that tells them apart may be missing. Identical values can stand only once. The shares of active, inactive and inconclusive entries below differ from those in the screen. For part of these data: A potency beside an inconclusive call is a rough fit, not a confirmed value. Activity calls are given as the source filed them. Unless noted, calls follow the shape of the dose curve; as a rule, active = well fitted curve in the direction sought with a large enough effect in the repeat runs; inconclusive = weak or mixed curves; inactive = no such curve, though single readings can be large; an effect the other way counts as inactive or inconclusive. Tags tell the direction and shape of the fitted curve.",
  "data": [
    {"smiles": "O=C1NCN(c2ccccc2)C12CCN(CC1COc3ccccc3O1)CC2", "note": "(stereo unspecified)", "values": [
      {"measurement": "Potency", "setting": "[1]", "value": "inconclusive: 26.6 µM [inhibitor, partial curve]"},
      {"measurement": "Potency", "setting": "[2]", "value": "inactive"},
      {"measurement": "Potency", "setting": "[3]", "value": "inconclusive: 26.6 µM [inhibitor, partial curve]"}
    ]},
    {"smiles": "O=C(O)C(Br)(Br)Br", "values": [
      {"measurement": "Potency", "setting": "[1]", "value": "inactive"},
      {"measurement": "Potency", "setting": "[2]", "value": "inactive"},
      {"measurement": "Potency", "setting": "[4]", "value": "inactive"}
    ]},
    {"smiles": "C=C(C)C#N", "values": [
      {"measurement": "Potency", "setting": "[1]", "value": "inactive"},
      {"measurement": "Potency", "setting": "[2]", "value": "inconclusive: 23.1 µM [cytotoxic, partial curve, poor fit]"},
      {"measurement": "Potency", "setting": "[5]", "value": "inactive and inconclusive: 30.6 µM [activator, partial curve, poor fit]"}
    ]},
    {"smiles": "O=[N+]([O-])c1cccc2cccc([N+](=O)[O-])c12", "values": [
      {"measurement": "Potency", "setting": "[1]", "value": "inconclusive: 54.7 µM [inhibitor, partial curve]"},
      {"measurement": "Potency", "setting": "Aromatase (Homo sapiens)", "value": "inconclusive: 27.4 µM [inhibitor, partial curve]"},
      {"measurement": "Potency", "setting": "[5]", "value": "inconclusive: 13.7 µM [activator, single point]"}
    ]},
    {"smiles": "NC(=S)Nc1ccccc1", "values": [
      {"measurement": "Potency", "setting": "[1]", "value": "inconclusive: 24.7 µM [inhibitor, partial curve, poor fit]"},
      {"measurement": "Potency", "setting": "[3]", "value": "inconclusive: 68.6 µM [activator]"}
    ]},
    {"smiles": "CCC(C)(CC)c1cc(NC(=O)c2c(OC)cccc2OC)on1", "values": [
      {"measurement": "Potency", "setting": "[1]", "value": "inconclusive: 52.4 µM [inhibitor, partial curve]"},
      {"measurement": "Potency", "setting": "[2]", "value": "inconclusive: 0.0276 µM [cytotoxic, full curve, poor fit]"},
      {"measurement": "activation", "setting": "[6]; activation: at 57 µM (top of the series) unless noted", "value": "inconclusive: -13.4%"},
      {"measurement": "activation", "setting": "[6]; at 78.9 µM (top of the series)", "value": "inactive: -7.67%"}
    ]},
    {"smiles": "O=[N+]([O-])c1ccc(Cl)c(Cl)c1", "values": [
      {"measurement": "Potency", "setting": "[7]", "value": "inactive"},
      {"measurement": "Potency", "setting": "[8]", "value": "inactive"},
      {"measurement": "Potency", "setting": "[2]", "value": "inconclusive: 19.5 µM [cytotoxic, full curve]"}
    ]}
  ]
}
